This data set in a line: xn = mol fraction of the nth substance listed. To be noted: 298.15 K, 100 kPa.

Four compounds from a compilation of properties of binary mixtures (doi:10.1016/j.seppur.2020.117103) can be followed below.

The densities may have been worked out from excess volumes.

Turning to `CO` + CC[n+]1ccn(C)c1.N#C[S-], under “x1 = 1”, the mass density stood at 786.8 kg/m3.
`CCO` + CC[n+]1ccn(C)c1.N#C[S-] registered a mass density (x1 = 1) of 784.6 kg/m3.
For the compound `CC[n+]1ccn(C)c1.N#C[S-]` + CCO, the mass density is, setting by setting: (x2 = 0) 1115.1 kg/m3; (x2 = 0.2134) 1088.9 kg/m3; (x2 = 0.345) 1067.7 kg/m3; (x2 = 0.3836) 1060.5 kg/m3; (x2 = 0.6181) 1003.1 kg/m3; (x2 = 0.6948) 975.7 kg/m3. The mass density (x2 = 0.8944) worked out at 873.3 kg/m3.
`CC[n+]1ccn(C)c1.N#C[S-]` + CO: the mass density runs as follows: (x2 = 0) 1115.1 kg/m3; (x2 = 0.2018) 1098.5 kg/m3; (x2 = 0.3185) 1086.2 kg/m3; (x2 = 0.4076) 1073.5 kg/m3; (x2 = 0.5037) 1057 kg/m3; (x2 = 0.5936) 1037.4 kg/m3. The mass density by setting is: (x2 = 0.6923) 1009.1 kg/m3; (x2 = 0.805) 962.6 kg/m3; (x2 = 0.9014) 899.3 kg/m3.
